Results as given in paper PMC4336329 (PLoS ONE, 2015).
Among all 310,000 compounds or so, about 14,000 (4.5%) showed an effect of 50% or more. Effects have a minus sign here. This is one part of the list.

biological target: human ether-à-go-go-related gene (hERG) potassium channel (human, UniProt Q12809); test: primary screen, population patch clamp on CHO cells stably expressing hERG
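Further: peak tail current of the secondary pulse compared with the same well before compound.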

Chain of human ether-à-go-go-related gene (hERG) potassium channel (Q12809 whole entry, looked up): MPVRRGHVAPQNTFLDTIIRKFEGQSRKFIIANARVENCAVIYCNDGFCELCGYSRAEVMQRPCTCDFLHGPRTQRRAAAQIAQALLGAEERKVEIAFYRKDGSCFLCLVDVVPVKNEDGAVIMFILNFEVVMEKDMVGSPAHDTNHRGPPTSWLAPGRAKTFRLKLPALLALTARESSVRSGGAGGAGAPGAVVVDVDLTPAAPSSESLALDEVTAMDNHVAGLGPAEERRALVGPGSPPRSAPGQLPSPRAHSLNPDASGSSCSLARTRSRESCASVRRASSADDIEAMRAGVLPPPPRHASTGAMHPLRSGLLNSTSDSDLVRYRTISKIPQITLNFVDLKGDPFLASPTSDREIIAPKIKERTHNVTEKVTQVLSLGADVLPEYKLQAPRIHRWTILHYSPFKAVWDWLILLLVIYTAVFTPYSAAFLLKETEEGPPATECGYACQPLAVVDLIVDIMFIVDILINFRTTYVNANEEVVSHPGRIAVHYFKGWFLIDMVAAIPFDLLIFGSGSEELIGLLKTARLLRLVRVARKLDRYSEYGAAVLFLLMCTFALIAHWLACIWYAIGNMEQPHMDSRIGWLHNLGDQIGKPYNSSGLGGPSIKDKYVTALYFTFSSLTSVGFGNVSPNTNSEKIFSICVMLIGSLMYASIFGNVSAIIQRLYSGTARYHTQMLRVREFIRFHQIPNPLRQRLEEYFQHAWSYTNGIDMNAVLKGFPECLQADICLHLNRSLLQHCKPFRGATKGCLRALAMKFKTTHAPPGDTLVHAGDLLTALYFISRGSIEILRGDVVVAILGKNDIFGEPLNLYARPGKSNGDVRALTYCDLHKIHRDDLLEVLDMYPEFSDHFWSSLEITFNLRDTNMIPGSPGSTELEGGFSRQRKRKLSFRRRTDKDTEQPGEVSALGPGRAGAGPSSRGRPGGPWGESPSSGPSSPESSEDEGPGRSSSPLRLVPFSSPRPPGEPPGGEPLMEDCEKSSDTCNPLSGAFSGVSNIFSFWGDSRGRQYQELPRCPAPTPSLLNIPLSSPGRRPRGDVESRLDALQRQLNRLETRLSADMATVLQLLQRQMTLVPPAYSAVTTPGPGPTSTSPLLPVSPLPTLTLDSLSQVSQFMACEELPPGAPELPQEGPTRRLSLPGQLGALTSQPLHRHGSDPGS

Compared with `Cc1ccc(S(=O)(=O)/N=C2\C(=O)c3ccccc3C([O-])=C2n2cc[n+](CCC(C)C)c2)cc1`, `Cc1ccc(-c2cn(S(=O)(=O)c3ccc(C)cc3)nc2N)cc1` is higher in “hERG current change (%, negative = inhibition) at 10uM” value: -8.73% for the first, 5.33% for the second.

Compared with `CC(CN1CCCC1)OC(=O)Cc1ccc(Cl)cc1.Cl` (stereo not drawn), `COc1ccc2cc(Br)ccc2c1CC(=O)N1CCCC1` is higher in “hERG current change (%, negative = inhibition) at 10uM” value: -8.89% for the first, -3.41% for the second.

Going from `Cc1cc(Nc2ccccc2)n(-c2ccccc2)n1` to `Cc1ccc(-c2c[nH]c(=S)n2-c2ccccc2)cc1`, the “hERG current change (%, negative = inhibition) at 10uM” value rises from -14.5% to 6.41%.

First: CCN(CC)CCCC(C)NC1=NCCCCC1 (stereo not drawn)
Second: CCOC(=O)N1CCC(Nc2c(NCCCN(CC)CC)c(=O)c2=O)CC1
The “hERG current change (%, negative = inhibition) at 10uM” value of the first is lower: 2.82% for the first, 10.2% for the second.

First: COc1ccc2c(Cn3cnc4cc([N+](=O)[O-])ccc4c3=O)cc(=O)oc2c1
Second: COc1ccc2c(c1)c(=O)oc1cc(OC(C(=O)O)c3ccccc3)ccc12 (stereo not drawn)
The “hERG current change (%, negative = inhibition) at 10uM” value of the first is lower: -5.58% for the first, 23.3% for the second.

Compared with `CCOC(=O)C1CCCN(CC(=O)Nc2c(C(=O)OC)[nH]c3ccc(Br)cc23)C1` (stereo not drawn), `O=C(COC(=O)Cc1ccsc1)Nc1ccc(Br)cc1F` is higher in “hERG current change (%, negative = inhibition) at 10uM” value: -30.9% for the first, 14.8% for the second.

First: CC(C)C(NC(=O)c1c(F)cccc1F)C(=O)N1CCN(S(=O)(=O)c2ccc(F)cc2)CC1 (stereo not drawn)
Second: CC(=O)Nc1ccc(S(=O)(=O)N2CCC(C(=O)c3ccc(Cl)cc3)CC2)cc1
The “hERG current change (%, negative = inhibition) at 10uM” value of the first is lower: -12.3% for the first, -6.83% for the second.

Going from `CCOC(=O)c1c(S(=O)(=O)N2CCN(Cc3ccccc3)CC2)c(C)n(C)c1C` to `COc1ccc(C)cc1S(=O)(=O)N1CCC(C(=O)NCCc2ccccc2)CC1`, the “hERG current change (%, negative = inhibition) at 10uM” value rises from -6.19% to -4.2%.

First: NC(=O)C1(N2CCCCC2)CCN(C(=S)Nc2cccc(Cl)c2)CC1
Second: CN(C)S(=O)(=O)c1ccc(N2CCCC2)c(C(=O)Nc2ccc(N3CCOCC3)cc2)c1
The “hERG current change (%, negative = inhibition) at 10uM” value of the first is higher: 9.34% for the first, -7.91% for the second.

Going from `CCOC(=O)Cc1csc(SCC(=O)Nc2oc(C)c3c(C)n[nH]c(=O)c23)n1` to `CCOC(=O)c1sc(NC(=O)CSc2n[nH]c(CC)n2)nc1C`, the “hERG current change (%, negative = inhibition) at 10uM” value rises from -10.9% to 4.82%.

Compared with `FC(F)(F)c1cccc(Cc2noc(CN3C[C@@H]4CCC[C@H]3C4)n2)c1`, `O=C(Cn1c2[n+](c3ccc(C(F)(F)F)cc31)CCCCC2)c1cccc([N+](=O)[O-])c1.[Br-]` is higher in “hERG current change (%, negative = inhibition) at 10uM” value: -19% for the first, 6.57% for the second.

Compared with `Cc1cc(C(=O)OCC(=O)NC(C)(C)C)c2ccccc2n1`, `CN(CC(=O)Nc1ccccc1Cl)C(=O)COC(=O)c1ccc(Cl)nc1` is higher in “hERG current change (%, negative = inhibition) at 10uM” value: -3.4% for the first, 4.99% for the second.

First: O=C(COC(=O)c1ccc2c(c1)OCCO2)Nc1cc(Cl)ccc1Cl
Second: O=C(CCCN1C(=O)CCC1=O)Nc1ccc2c(c1)OCO2
The “hERG current change (%, negative = inhibition) at 10uM” value of the first is higher: 16.7% for the first, 12.3% for the second.

First: CCCN(Cc1nnc(-c2ccccc2Cl)o1)C(=O)c1ccc(C)c(S(=O)(=O)N2CCOCC2)c1
Second: CCC1=Nc2cc(C(=O)NCCN3CCOCC3)ccc2Sc2ccccc21
The “hERG current change (%, negative = inhibition) at 10uM” value of the first is lower: -55.8% for the first, -15.3% for the second.

First: CCOc1ccc(/C=N/OC(C)C(=O)NCc2ccc3c(c2)OCO3)cc1 (stereo not drawn)
Second: CCOC(=O)N1CCN(Cc2ccc3c(c2)OCO3)CC1
The “hERG current change (%, negative = inhibition) at 10uM” value of the first is lower: -10.3% for the first, 8.58% for the second.

Going from `Cc1cc(C)c(-c2cc(NC(=O)CSc3nncn3C)n(-c3ccccc3)n2)cc1C` to `Cn1c(SCC(=O)NCc2ccccc2)nc2ccccc21`, the “hERG current change (%, negative = inhibition) at 10uM” value rises from -34.4% to 12.4%.

First: CCC(Sc1nc(C)cc(=O)[nH]1)C(=O)Nc1sc2c(c1C#N)CCCC2 (stereo not drawn)
Second: CCOC(=O)c1[nH]c(C)c(C(=O)OC(C)C(=O)Nc2ncc(Cl)cc2Cl)c1C (stereo not drawn)
The “hERG current change (%, negative = inhibition) at 10uM” value of the first is lower: -19.1% for the first, -0.541% for the second.

Compared with `COc1ccc(S(=O)(=O)N(C)CC(=O)N2CCCCCC2)cc1OC`, `COc1ccc(S(=O)(=O)N2CCSC2)cc1C` is lower in “hERG current change (%, negative = inhibition) at 10uM” value: 8.53% for the first, -9.56% for the second.

First: Cc1cc(/C=C2\SC(N)=NC2=O)c(C)n1-c1ccc(F)cc1
Second: CCC(=NCc1ccco1)c1c(O)n(-c2ccc(C)cc2)c(=O)[nH]c1=O
The “hERG current change (%, negative = inhibition) at 10uM” value of the first is higher: 22.8% for the first, -4.19% for the second.

First: CCCCN(C)C(=O)c1nc2ccccn2c1CN1CCN(c2cnccn2)CC1
Second: CN1CCN(c2ccc(NC(=O)COc3ccc4ccccc4c3)cc2)CC1
The “hERG current change (%, negative = inhibition) at 10uM” value of the first is higher: -12.4% for the first, -17.3% for the second.

First: CCCCOc1ccc(C(=O)NCC2(c3ccccc3)CCOCC2)cc1
Second: CCCCOc1cccc(C(=O)NC(=S)Nc2cccc(C(F)(F)F)c2)c1
The “hERG current change (%, negative = inhibition) at 10uM” value of the first is lower: -42.4% for the first, 5.31% for the second.

First: COc1ccc(C2OC(=O)c3ccccc3S2)cc1 (stereo not drawn)
Second: COc1ccc(CC(=O)Nc2ccccc2Oc2ccccc2)cc1
The “hERG current change (%, negative = inhibition) at 10uM” value of the first is higher: 19.6% for the first, -4.21% for the second.

Going from `O=c1[nH]c(CSc2nnc(NCCCN3CCOCC3)s2)nc2cc(Cl)ccc12` to `Cc1cccc(/C=C2/Sc3ccc(C(=O)NCCCN4CCOCC4)cc3NC2=O)c1`, the “hERG current change (%, negative = inhibition) at 10uM” value falls from 1.02% to -25.3%.

Going from `Cc1cccc(N2C(N)=C(C#N)C(C#N)(C#N)C2c2ccccc2)c1` (stereo not drawn) to `CC(C)(C)C1CC=C2C(C#N)=C(N)C(C#N)(C#N)C(c3cccs3)C2C1` (stereo not drawn), the “hERG current change (%, negative = inhibition) at 10uM” value falls from -2.39% to -8.29%.

First: COc1ccccc1N1CCN(S(=O)(=O)c2ccc(-n3cnnn3)cc2)CC1
Second: CC(=O)c1ccc(S(=O)(=O)Nc2ccc(-n3cnnn3)cc2)cc1
The “hERG current change (%, negative = inhibition) at 10uM” value of the first is lower: -72% for the first, -6.16% for the second.

First: COc1ccc(CNC(=O)CSc2nnnn2C)cc1OC
Second: COc1ccccc1C(=O)NCCN1CCN(C(=O)c2ccccc2OC)CC1
The “hERG current change (%, negative = inhibition) at 10uM” value of the first is higher: 20.7% for the first, -48.6% for the second.

First: CCNc1nc(OCC)nc(N2CCC(Cc3ccccc3)CC2)n1
Second: CN1C(=O)/C(=C\c2ccccc2F)Sc2ccc(C(=O)NC3CCN(Cc4ccccc4)CC3)cc21
The “hERG current change (%, negative = inhibition) at 10uM” value of the first is higher: 13.3% for the first, -24.4% for the second.

Going from `COc1ccc(C(=O)CSc2nnc(CNC(=O)c3ccc(S(=O)(=O)N(C)C)cc3)o2)cc1` to `Cc1ccc(S(=O)(=O)CCC(=O)Oc2ccc(-c3nnco3)cc2)cc1`, the “hERG current change (%, negative = inhibition) at 10uM” value rises from 4.22% to 14.3%.

Compared with `O=C1CNC(=S)N1c1nc2ccccc2s1`, `O=C(O)CCCc1nc2ccccc2s1` is lower in “hERG current change (%, negative = inhibition) at 10uM” value: 21.6% for the first, 14.3% for the second.

Compared with `O=C1NCCc2c1[nH]c1c(Cl)ccc(Cl)c21`, `Cc1ccc(F)c(Cn2cnc3c(cnn3C(C)(C)C)c2=O)c1Cl` is lower in “hERG current change (%, negative = inhibition) at 10uM” value: -2.58% for the first, -6.94% for the second.

Compared with `COc1cc(OC)cc(-c2ncc3ccccn23)c1.O=C(O)C(=O)O`, `COc1cccc(-c2nn3c(-c4ccccn4)nnc3s2)c1` is lower in “hERG current change (%, negative = inhibition) at 10uM” value: -5.52% for the first, -28% for the second.

First: CCn1c(=O)c2c(nc(SCC(=O)N3CCC(C)CC3)n2C)n(C)c1=O
Second: Cn1c(=O)n(CC(=O)N2CCN(c3nnc(-c4ccccc4)c4ccccc34)CC2)c2ccccc21
The “hERG current change (%, negative = inhibition) at 10uM” value of the first is higher: -2.1% for the first, -56% for the second.

Going from `CC(C(Sc1ccccc1N)c1ccccc1)[N+](=O)[O-]` (stereo not drawn) to `O=C(COc1cccc([N+](=O)[O-])c1)NN1C(=O)c2ccccc2C1=O`, the “hERG current change (%, negative = inhibition) at 10uM” value falls from 7.82% to -5.95%.

Compared with `Cc1ccc(NC(=S)NCC2CCCO2)c(OC(F)F)c1` (stereo not drawn), `CN1CCC(OC(=O)c2cccc(F)c2)CC1.Cl` is higher in “hERG current change (%, negative = inhibition) at 10uM” value: -4.36% for the first, -0.186% for the second.

Compared with `CCC(C)Nc1nc(C)nc2c1oc1ccccc12.Cl` (stereo not drawn), `Cl.NC(=NCc1ccccc1)NC(=O)c1nc(Cl)c(N)nc1N` is lower in “hERG current change (%, negative = inhibition) at 10uM” value: 2.64% for the first, -54.2% for the second.

First: COc1c(C=O)cc2c3c1CCCN3CCC2
Second: O=C(N/N=C/c1cc(Br)ccc1O)C(c1ccncc1)N1CCOCC1 (stereo not drawn)
The “hERG current change (%, negative = inhibition) at 10uM” value of the first is higher: 23.3% for the first, -16% for the second.

Compared with `COc1ccc2[nH]c(=O)c(CN(C(=O)COc3ccccc3)C(C)C)cc2c1`, `COc1ccc(N(C(=O)CNS(=O)(=O)c2ccccc2)C(C(=O)NCc2ccco2)C(C)C)cc1` (stereo not drawn) is higher in “hERG current change (%, negative = inhibition) at 10uM” value: -10.6% for the first, -4.04% for the second.

First: COCCNC(=O)[C@@H]1CCCN1C(=O)C1CCN(S(=O)(=O)c2ccc(C)cc2)CC1
Second: CC1CCC(C(=O)NC(C(=O)N2CCN(c3ccccn3)CC2)C(C)C)CC1 (stereo not drawn)
The “hERG current change (%, negative = inhibition) at 10uM” value of the first is higher: 2.72% for the first, 0.678% for the second.

First: COc1cccc(-c2csc(NC3OC(=O)c4c3ccc(OC)c4OC)n2)c1 (stereo not drawn)
Second: Nc1nonc1-n1nnc(C(=O)N/N=C/c2cccs2)c1-c1ccc2c(c1)OCO2
The “hERG current change (%, negative = inhibition) at 10uM” value of the first is higher: 6.18% for the first, 0.643% for the second.

Compared with `CCN(CC)CCNC(=O)c1ccc(NC(=O)c2c(F)cccc2Cl)cc1`, `CCN(CC)CCCOC(=O)c1ccc(OC)cc1O.Cl` is lower in “hERG current change (%, negative = inhibition) at 10uM” value: -12.4% for the first, -40.9% for the second.

Going from `O=C(CCCC(=O)N(CC(=O)NC1CCCC1)Cc1ccccc1Cl)Nc1ccccn1` to `CC1CCCCC1NC(=S)NC(=O)c1cccs1` (stereo not drawn), the “hERG current change (%, negative = inhibition) at 10uM” value rises from -8.62% to 11.1%.

Going from `NS(=O)(=O)c1cc2c(cc1Cl)NC=NS2(=O)=O` to `C[C@@]12CC(=O)NC1N(C(=O)c1ccccc1)C(c1ccccc1OC(=O)c1ccccc1)C2` (stereo partly drawn), the “hERG current change (%, negative = inhibition) at 10uM” value rises from 2.86% to 3.16%.

Going from `CC(=O)N1N=C(c2ccccc2OC(=O)/C=C/c2ccccc2)CC1c1ccccc1` (stereo not drawn) to `O=[N+]([O-])c1ccc(/C=N/Nc2ncc(Br)cn2)cc1`, the “hERG current change (%, negative = inhibition) at 10uM” value rises from 5.46% to 13.1%.

In the case of `O=C(CCC1CCCC1)N1CCC(N2CCCCCC2)CC1.O=C(O)C(=O)O`, the “hERG current change (%, negative = inhibition) at 10uM” value is reported as -29.9%.
